From the antibiotic and cytotoxicity screens of Wong et al. (2023)
This is one part of the list.

tested on: HSkMC (human skeletal muscle cells); assay: cytotoxicity call (relative viability < 0.9); details: 10 µM

SMILES	cytotoxicity call
Cc1ccc(S(=O)(=O)Nc2cccc3c2O[C@@H](CN(C)Cc2ccc(Oc4ccccc4)cc2)[C@H](C)CN([C@@H](C)CO)C3=O)cc1	inactive
NCCSSCCN	inactive
CCCOc1c(-c2ccc3ccccc3n2)cnc2ccccc12	inactive
O=C(CCCCCCC(=O)Nc1ccc([C@H]2O[C@@H](CSc3ccccc3)C[C@H](c3ccccc3)O2)cc1)NO	inactive
Cc1ccc(OC(=O)N(C)C[C@@H]2OCc3ccccc3-c3ccccc3C(=O)N([C@H](C)CO)C[C@@H]2C)cc1	inactive
COCC(=O)Nc1ccc2c(c1)OC[C@H](C)N(C(=O)c1ccccc1F)C[C@@H](C)[C@@H](OC)CN(C)C2=O	inactive
C[C@@H]1CCCCO[C@@H](CN(C)C(=O)Nc2cccc3ccccc23)[C@H](C)CN([C@H](C)CO)C(=O)c2cc(NS(=O)(=O)c3cn(C)cn3)ccc2O1	inactive
COc1ccc(S(=O)(=O)N(C)C[C@@H]2Oc3ccc(NS(=O)(=O)c4cn(C)cn4)cc3CC(=O)N([C@H](C)CO)C[C@@H]2C)cc1	inactive
COc1ccccc1CN1C(=O)c2ccccc2[C@](Cc2ccccc2I)(C(=O)NCCCN(C)C)[C@@H]1c1ccc(CO)cc1	inactive
O=C(O)[C@@H]1CC(=O)N(C2CCCC2)C1	inactive
CO[C@H]1CN(C)C(=O)c2cc(NC(=O)Nc3ccccc3F)ccc2OC[C@H](C)N(CCC(F)(F)F)C[C@@H]1C	inactive
COc1ccc(S(=O)(=O)N2C[C@@H](O)COC[C@H]3O[C@@H](CC(=O)NCCN4CCCCC4)CC[C@@H]32)cc1	inactive
